Measured values as given in PubChem BioAssay (Tox21).
Where “and” joins values, the source holds several entries; their conditions need not be identical. Equal values may be shown once. Inconclusive means that the source gave no clear call. Such entries were picked first, then a sample of the others. A call without a number means that no potency is given here. For part of these data: Potencies beside an inconclusive call are fits to weak or partial responses and may not hold up. Calls of active or inactive are those of the source. Unless noted, the call rests on the fitted dose curve; in most records, active means well fitted curve in the direction sought with a large enough effect in the repeat runs; inconclusive means weak or mixed curves; inactive means no such curve, though single readings can be large; an effect the other way counts as inactive or inconclusive.

Legend:
[1] = qHTS RealTime-Glo MT Cell Viability Assay in HepG2 cells - 24 hour (AID 1224867); further: nearly all actives have a fitted effect of over 50% in size
Outline: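 HepG2 cells (600/well) were dispensed with RealTime-Glo reagents, incubated 5 h at 37 °C, then treated with compounds in DMSO for up to 40 h. Nonlytic NanoLuc luminescence reflecting viable cells was read at each stated time point.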

[2] = molecular target: Estrogen receptor beta (Homo sapiens) (UniProt Q92731); assay: qHTS assay to identify small molecule agonists of the estrogen receptor beta (ER-beta) signaling pathway (AID 1259377; active means well fitted activation curve with a large enough effect in the signal ratio in the repeat runs, not every such curve was filed as active; inconclusive means weak or mixed curves, or effect the other way; the % refers to the signal ratio; further: potency means the concentration at half of the fitted maximal effect); conditions: ER-beta-UAS-bla HEK293T, beta-lactamase FRET ratio, 16 h; activation: at 92.4 µM (top of the series) unless noted
Chain of UniProt Q92731 (Q92731 whole entry, looked up): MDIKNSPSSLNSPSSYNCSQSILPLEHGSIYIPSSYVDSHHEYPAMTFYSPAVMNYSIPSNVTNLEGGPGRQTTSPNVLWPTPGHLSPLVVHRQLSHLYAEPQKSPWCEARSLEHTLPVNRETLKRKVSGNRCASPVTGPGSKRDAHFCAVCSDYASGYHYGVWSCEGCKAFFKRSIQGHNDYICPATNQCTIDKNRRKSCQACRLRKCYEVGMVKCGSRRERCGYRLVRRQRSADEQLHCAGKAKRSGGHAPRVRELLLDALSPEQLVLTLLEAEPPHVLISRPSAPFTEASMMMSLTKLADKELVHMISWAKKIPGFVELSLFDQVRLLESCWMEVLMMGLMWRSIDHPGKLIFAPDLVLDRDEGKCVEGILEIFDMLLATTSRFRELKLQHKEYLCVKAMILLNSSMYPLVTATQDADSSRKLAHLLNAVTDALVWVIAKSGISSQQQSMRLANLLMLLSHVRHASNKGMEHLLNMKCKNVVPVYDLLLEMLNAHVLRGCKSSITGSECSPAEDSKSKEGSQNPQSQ
Outline: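 Ratiometric beta-lactamase FRET read-out came after 2 h substrate loading at room temperature. It followed 16 h compound treatment at 37C of GripTite HEK293T cells carrying a UAS-bla reporter, plated in 2% charcoal-stripped FBS medium.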

[3] = qHTS assay to identify small molecule antagonists of the progesterone receptor (PR) signaling pathway - cell viability counter screen (AID 1346798); further: nearly all actives have a fitted effect of over 50% in size; further: potency means the concentration at half of the fitted maximal effect
Outline: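 Cytotoxicity read as CellTiter-Glo luminescence (30 min, room temperature) in the same wells as the beta-lactamase readout. HEK293T PR-UAS-bla cells in charcoal-stripped 2% FBS received compound and R5020, then 16 h at 37C, 5% CO2.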

[4] = molecular target: Estrogen receptor (Homo sapiens) (UniProt P03372); assay: qHTS assay to identify small molecule agonists of the estrogen receptor alpha (ER-alpha) signaling pathway using the BG1 cell line (AID 743079); conditions: BG1Luc4E2 cells, ERE-luciferase agonist, 22 h; activation: at 70.3 µM (top of the series) unless noted; further: nearly all actives have a fitted effect of over 20% in size; further: potency means the concentration at half of the fitted maximal effect
Chain of UniProt P03372 (P03372 whole entry, looked up): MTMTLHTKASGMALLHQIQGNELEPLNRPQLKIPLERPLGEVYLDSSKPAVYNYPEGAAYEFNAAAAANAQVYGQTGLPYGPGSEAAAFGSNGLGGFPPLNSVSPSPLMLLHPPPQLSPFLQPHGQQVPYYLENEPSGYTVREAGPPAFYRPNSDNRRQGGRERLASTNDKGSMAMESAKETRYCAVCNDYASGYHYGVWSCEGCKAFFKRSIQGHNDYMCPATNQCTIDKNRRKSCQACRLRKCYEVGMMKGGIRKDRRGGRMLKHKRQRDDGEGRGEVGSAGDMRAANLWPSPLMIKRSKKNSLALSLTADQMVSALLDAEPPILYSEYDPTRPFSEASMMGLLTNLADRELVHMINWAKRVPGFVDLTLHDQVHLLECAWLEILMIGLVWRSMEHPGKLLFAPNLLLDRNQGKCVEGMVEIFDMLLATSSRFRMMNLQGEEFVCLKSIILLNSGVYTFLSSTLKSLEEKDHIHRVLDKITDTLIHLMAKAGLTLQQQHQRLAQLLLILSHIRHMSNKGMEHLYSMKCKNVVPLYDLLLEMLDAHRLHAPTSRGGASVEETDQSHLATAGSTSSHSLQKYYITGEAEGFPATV

[5] = qHTS assay to identify small molecule antagonists of the estrogen related receptor (ERR) signaling pathway from Tox21 library (AID 1224848); further: nearly all actives have a fitted effect of over 50% in size
Outline: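 Cells: ERR line, 2,000/well; 6 h preincubation 37 C/5% CO2. Cpd in DMSO via pin tool; 18 h, 37 C. ONE-Glo, 30 min RT, luminescence.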

[6] = molecular target: Peroxisome proliferator-activated receptor gamma (Homo sapiens) (UniProt P37231); assay: qHTS assay to identify small molecule agonists of the peroxisome proliferator-activated receptor gamma (PPARg) signaling pathway (AID 743094; active means well fitted activation curve with a large enough effect in the signal ratio in the repeat runs, not every such curve was filed as active; inconclusive means weak or mixed curves, or effect the other way; inactive means no such curve, though single readings can be large or run the other way; the % refers to the signal ratio; further: potency means the concentration at half of the fitted maximal effect); conditions: HEK293H PPARg-UAS-bla, beta-lactamase FRET ratio, 17 h; activation: at 57 µM (top of the series) unless noted
Chain of UniProt P37231 (P37231 whole entry, looked up): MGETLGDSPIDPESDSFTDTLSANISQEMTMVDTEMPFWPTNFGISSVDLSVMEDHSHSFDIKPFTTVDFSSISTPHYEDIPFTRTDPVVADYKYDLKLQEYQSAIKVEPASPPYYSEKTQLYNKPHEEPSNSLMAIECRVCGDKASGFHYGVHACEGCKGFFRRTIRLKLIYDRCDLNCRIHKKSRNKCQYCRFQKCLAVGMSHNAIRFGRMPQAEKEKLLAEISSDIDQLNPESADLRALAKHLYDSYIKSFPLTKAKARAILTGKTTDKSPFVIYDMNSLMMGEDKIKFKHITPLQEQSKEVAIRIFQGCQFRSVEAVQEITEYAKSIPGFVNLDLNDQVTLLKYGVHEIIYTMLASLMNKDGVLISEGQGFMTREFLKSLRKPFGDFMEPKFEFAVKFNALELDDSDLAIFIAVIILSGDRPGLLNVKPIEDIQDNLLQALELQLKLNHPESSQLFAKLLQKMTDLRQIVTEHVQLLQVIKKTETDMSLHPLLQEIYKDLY
Outline: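 Stably transfected HEK293H cells (GeneBLAzer PPARg UAS-bla) were incubated with test substances for 17 h at 37C after a 5 h pre-incubation; beta-lactamase activity was then detected by FRET substrate fluorescence.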

[7] = qHTS assay to identify small molecule agonists of the farnesoid-X-receptor (FXR) signaling pathway - cell viability counter screen (AID 743218); conditions: FXR-bla HEK293T viability, CellTiter-Glo luminescence, 16 h; viability change, negative = cytotoxic: at 62.6 µM (top of the series) unless noted; further: nearly all actives have a fitted effect of over 45% in size
Outline: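 In GeneBLAzer FXR-UAS-bla HEK 293T cells, compounds act for 16 h at 37 C. Cell viability is then scored in the reporter wells by CellTiter-Glo, 30 min at RT, luminescence.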

[8] = qHTS assay to identify small molecule antagonists of the vitamin D receptor (VDR) signaling pathway - cell viability counter screen (AID 743225); conditions: VDR-bla HEK293T viability, CellTiter-Glo luminescence, 16 h; viability change, negative = cytotoxic: at 61 µM (top of the series) unless noted; further: nearly all actives have a fitted effect of over 50% in size; further: potency means the concentration at half of the fitted maximal effect
Outline: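 Cytotoxicity counter screen read by CellTiter-Glo luminescence (30 min, room temperature) in the same wells as the VDR-bla antagonist readout. HEK 293T VDR-UAS-bla cells had 16 h at 37C with compound and 3 nM (final) 1-alpha,25-dihydroxyvitamin D3, then 2 h with FRET substrate.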

[9] = molecular target: Estrogen receptor (Homo sapiens) (UniProt P03372); assay: qHTS assay to identify small molecule antagonists of the estrogen receptor alpha (ER-alpha) signaling pathway (AID 743069; active means well fitted curve in the direction sought with a large enough effect in the signal ratio in the repeat runs, not every such curve was filed as active; inconclusive means weak or mixed curves, or effect the other way; inactive means no such curve, though single readings can be large or run the other way; the % refers to the signal ratio; further: potency means the concentration at half of the fitted maximal effect); conditions: HEK293 ER-alpha-UAS-bla, beta-lactamase ratio, antagonist mode; activity, negative = inhibition: at 69.4 µM (top of the series) unless noted
Outline: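 HEK293 cells stably carrying an ER-alpha-UAS-bla beta-lactamase reporter were pre-cultured overnight in 2% charcoal-stripped FBS medium. Test compounds in DMSO were added together with 17beta-estradiol for 18 hr at 37C. Read-out was fluorescence after 2 hr with LiveBLAzer B/G FRET substrate at room temperature.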

[10] = molecular target: Nuclear receptor subfamily 1 group I member 2 (Homo sapiens) (UniProt O75469); assay: Human pregnane X receptor (PXR) small molecule agonists, qHTS assay (AID 1346982); further: nearly all actives have a fitted effect of over 35% in size; further: potency means the concentration at half of the fitted maximal effect
Chain of UniProt O75469 (O75469 whole entry, looked up): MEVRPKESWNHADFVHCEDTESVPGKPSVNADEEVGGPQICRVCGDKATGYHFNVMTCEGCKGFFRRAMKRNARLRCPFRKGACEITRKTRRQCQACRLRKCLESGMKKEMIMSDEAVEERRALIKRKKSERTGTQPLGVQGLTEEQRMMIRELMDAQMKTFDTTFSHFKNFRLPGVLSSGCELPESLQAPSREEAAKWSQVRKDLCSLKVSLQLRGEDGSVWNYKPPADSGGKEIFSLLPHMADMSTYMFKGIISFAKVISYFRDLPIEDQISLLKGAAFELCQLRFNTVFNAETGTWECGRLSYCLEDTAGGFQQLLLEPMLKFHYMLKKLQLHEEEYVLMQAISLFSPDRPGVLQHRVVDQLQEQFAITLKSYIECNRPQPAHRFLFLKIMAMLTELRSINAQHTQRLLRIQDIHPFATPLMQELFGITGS
Outline: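 Luminescence (ONE-Glo, 30 min RT) after 24 hr compound exposure of PXR-Luc HepG2 cells; cells rested 5 hr post-plating in 5% charcoal-stripped FBS medium.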

[11] = A CellTox Green Cytotoxicity Assay to monitor cytotoxicity in HEK293 cells - 40 hour (AID 1224871); further: nearly all actives have a fitted effect of over 45% in size
Outline: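 Each value comes from one timepoint of a single continuous run in which HEK293 cells with CellTox Green were exposed to compound for up to 40 h at 37 C, dye fluorescence rising with cell death.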

[12] = qHTS RealTime-Glo MT Cell Viability Assay in HEK293 cells - 32 hour (AID 1224868); further: nearly all actives have a fitted effect of over 50% in size; further: potency means the concentration at half of the fitted maximal effect; on activity change, negative = cytotoxic: top concentration of the series differs between compounds
Outline: (§1)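 HEK293 cells seeded with NanoLuc/prosubstrate reagent, rested 5 h at 37 C, then dosed and kept at 37 C up to 40 h. Nonlytic real-time luminescence from viable cells read at 0, 8, 16, 24, 32 and 40 h.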

[13] = qHTS RealTime-Glo MT Cell Viability Assay in HEK293 cells - 16 hour (AID 1224872); further: nearly all actives have a fitted effect of over 50% in size; further: potency means the concentration at half of the fitted maximal effect; on activity change, negative = cytotoxicity: top concentration of the series differs between compounds
Outline: as §1

[14] = molecular target: Bile acid receptor (Homo sapiens) (UniProt Q96RI1); assay: qHTS assay to identify small molecule antagonists of the farnesoid-X-receptor (FXR) signaling pathway (AID 743217; active means well fitted inhibition curve with a large enough effect in the signal ratio in the repeat runs, not every such curve was filed as active; inconclusive means weak or mixed curves, or effect the other way; inactive means no such curve, though single readings can be large or run the other way; the % refers to the signal ratio); conditions: HEK293T FXR-UAS-bla, beta-lactamase ratio, CDCA-stimulated, 16 h; activity change, negative = inhibition: at 62.6 µM (top of the series) unless noted
Chain of UniProt Q96RI1 (Q96RI1 whole entry, looked up): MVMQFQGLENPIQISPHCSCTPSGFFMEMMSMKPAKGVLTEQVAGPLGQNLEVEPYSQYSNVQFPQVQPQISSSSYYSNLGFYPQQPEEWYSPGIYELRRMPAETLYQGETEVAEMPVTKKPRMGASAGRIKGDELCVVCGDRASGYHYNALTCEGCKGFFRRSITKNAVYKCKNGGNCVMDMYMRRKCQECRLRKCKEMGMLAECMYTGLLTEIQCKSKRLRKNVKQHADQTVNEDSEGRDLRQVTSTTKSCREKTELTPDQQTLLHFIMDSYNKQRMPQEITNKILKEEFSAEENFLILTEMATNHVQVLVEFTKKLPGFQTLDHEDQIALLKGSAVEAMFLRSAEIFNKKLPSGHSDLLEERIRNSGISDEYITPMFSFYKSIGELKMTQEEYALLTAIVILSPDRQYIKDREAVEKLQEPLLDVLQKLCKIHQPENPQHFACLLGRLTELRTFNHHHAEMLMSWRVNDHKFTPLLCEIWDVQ
Outline: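 Beta-lactamase reporter under UAS control in HEK 293T cells; compound exposure 16 h at 37 °C in the presence of chenodeoxycholic acid (50 uM final); signal from B/G FRET substrate after 2 h at room temperature.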

[15] = qHTS assay to identify small molecule antagonists of the estrogen receptor alpha (ER-alpha) signaling pathway - cell viability counter screen (AID 743074; calls by dose curve; further: nearly all actives have a fitted effect of over 45% in size; further: potency means the concentration at half of the fitted maximal effect)
[16] = qHTS assay for identifying genotoxic compounds that show differential cytotoxicity against isogenic chicken DT40 cell lines with known DNA damage response pathways - Rad54/Ku70 mutant cell line (AID 743015); conditions: DT40 Rad54/Ku70 mutant viability, CellTiter-Glo, 40 h; activity change, negative = cytotoxicity: at 66.8 µM (top of the series) unless noted; further: potency means the concentration at half of the fitted maximal effect; nearly all actives have a fitted effect of over 60% in size
[17] = qHTS assay to identify small molecule agonists of the vitamin D receptor (VDR) signaling pathway - cell viability counter screen (AID 743224); further: nearly all actives have a fitted effect of over 50% in size; further: potency means the concentration at half of the fitted maximal effect
Outline: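 VDR-bla cell line, quantitative HTS format; 16 h compound incubation (37C, 5% CO2); ATP-based CellTiter-Glo luminescence measured in the reporter assay wells.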
Tags describe the fitted curve by direction and shape or compound fluorescence and quenching.

## Nc1ccc(S(=O)(=O)Nc2ccnn2-c2ccccc2)cc1
[1]
  activity change, negative = cytotoxicity: inactive: 1% [at 15.8 µM]
[2]
  Potency: inconclusive: 14.6 µM [activator, single point]
[3]
  activity change, negative = cytotoxicity: inactive: -1.46% [at 18.9 µM]

## Brc1cc(Br)cc(Br)c1
[2]
  Potency: inconclusive: 12.2 µM [activator, full curve]

## CC1=C(C(=O)O)N2C(=O)[C@@H](NC(=O)[C@H](N)c3ccccc3)[C@H]2SC1
[4]
  Potency: inactive
[5]
  Potency: inactive
[2]
  activation: inconclusive: 8.09% [at 42.5 µM]

## CN1C(=O)CC[C@H]1c1cccnc1
[2]
  Potency: inactive

## OCC(O)[C@@H](O)[C@H](O)[C@H](O)CO[C@H]1O[C@H](CO)[C@@H](O)[C@H](O)[C@H]1O (stereo not given in full)
[6]
  Potency: inactive

## O=[Si]=O
[7]
  Potency: inactive
[8]
  Potency: inactive

## OCCOc1ccc(OCCO)cc1
[9]
  Potency: inactive
[4]
  Potency: inactive
[8]
  Potency: inconclusive: 14.1 µM [cytotoxic, partial curve]
[5]
  Potency: inactive

## CCNC(=O)C1CC(C)CCC1C(C)C (stereo not given)
[10]
  Potency: inconclusive: 34.4 µM [activator, partial curve]

## CCCCCCS
[2]
  Potency: inactive

## Nc1cc([N+](=O)[O-])ccc1Cl
[11]
  Potency: inactive

## C=C1C[C@]23C[C@@]1(O)CC[C@H]2[C@@]12C=C[C@H](O)[C@@](C)(C(=O)O1)[C@H]2[C@@H]3C(=O)O
[6]
  Potency: inactive
[8]
  Potency: inactive
[11]
  Potency: inactive

## COc1ccnc(CS(=O)c2nc3cc(OC(F)F)ccc3[nH]2)c1OC (stereo not given)
[9]
  Potency: inconclusive: 9.52 µM [activator, partial curve] and inconclusive: 11 µM [activator, partial curve]
[6]
  activation: inconclusive: -11.7% [at 78.9 µM]
[8]
  Potency: inactive
[12]
  Potency: inconclusive: 49.3 µM [cytotoxic, partial curve, poor fit]
[13]
  Potency: inactive
[2]
  Potency: inconclusive: 27.5 µM [rising, partial curve]

## CCCCCC(=O)OCC
[14]
  activity change, negative = inhibition: inconclusive: 23.1%
[11]
  Potency: inactive

## O=S(=O)(O)CCO
[4]
  Potency: inactive
[6]
  Potency: inactive
[11]
  Potency: inactive
[13]
  Potency: inactive
[2]
  activation: inconclusive: 6.43%

## CC/C=C(\C(=O)N[C@@H]1C(=O)N2C(C(=O)OCOC(=O)C(C)(C)C)=C(COC(N)=O)CS[C@H]12)c1csc(N)n1
[9]
  activity, negative = inhibition: inconclusive: 14.1% and inconclusive: 19.6%
[15]
  Potency: inconclusive: 26.8 µM [rising, single point]
[7]
  Potency: inactive
[11]
  Potency: inactive
[10]
  Potency: inactive

## CO[C@@]1(NC(=O)CSC[C@@H](N)C(=O)O)C(=O)N2C(C(=O)O)=C(CSc3nnnn3C)CS[C@@H]21
[11]
  Potency: inactive

## CCOC(=O)c1cccc(N)c1
[4]
  Potency: inconclusive: 23.7 µM [activator, partial curve]
[7]
  Potency: inactive
[12]
  Potency: inactive
[3]
  Potency: inactive

## CC1CN(c2cc3c(cc2F)c(=O)c(C(=O)O)cn3-c2ccc(F)cc2F)CCN1 (stereo not given)
[11]
  cytotoxicity increase: inactive: -7.27% [at 6.97 µM]
[13]
  activity change, negative = cytotoxicity: inactive: 6.7% [at 6.97 µM]

## Nc1cc(C(Cl)=C(Cl)Cl)c(S(N)(=O)=O)cc1S(N)(=O)=O
[11]
  Potency: inactive

## OCC1(CO)COCOC1
[6]
  Potency: inactive
[11]
  Potency: inactive

## Cc1nc2n(c(=O)c1CCN1CCC(c3noc4cc(F)ccc34)CC1)CCC[C@H]2O
[15]
  Potency: inactive
[6]
  Potency: inactive
[14]
  Potency: inactive
[12]
  Potency: inconclusive: 4.14 µM [cytotoxic, partial curve]
[13]
  Potency: inconclusive: 5.22 µM [cytotoxic, partial curve]

## C/C=C/C=C/CO
[16]
  Potency: inconclusive: 61.1 µM [cytotoxic, partial curve, poor fit]
[8]
  Potency: inactive
[12]
  Potency: inconclusive: 17.4 µM [cytotoxic, full curve]
[13]
  Potency: inactive

## Cc1ccccc1C
[11]
  Potency: inactive

## CC(=O)c1ccc(O)c(C(N)=O)c1
[14]
  Potency: inactive
[17]
  Potency: inconclusive: 23.7 µM [rising, single point]
[1]
  Potency: inactive

## Cc1onc(-c2c(Cl)cccc2Cl)c1C(=O)Cl
[12]
  Potency: inactive

## CCCCc1nc(Cl)c(CO)n1Cc1ccc(-c2ccccc2-c2nn[nH]n2)cc1
[6]
  Potency: active: 23.9 µM
[11]
  Potency: inactive
[3]
  Potency: inactive

## Cc1ccc(C(=O)O)cc1[N+](=O)[O-]
[8]
  Potency: inconclusive: 54.2 µM [cytotoxic, single point]
[1]
  Potency: inactive

## O=C(O)CCSCCC(=O)O
[9]
  activity, negative = inhibition: inconclusive: -30.3%
[15]
  Potency: inactive
[4]
  Potency: inactive
[17]
  Potency: inactive
[12]
  Potency: inactive
[3]
  Potency: inactive

## O=C(OCCN1CCOCC1)c1cccnc1Nc1cccc(C(F)(F)F)c1
[12]
  Potency: inconclusive: 21.3 µM [cytotoxic, partial curve]
[13]
  Potency: inconclusive: 16.9 µM [cytotoxic, partial curve]
[2]
  Potency: inconclusive: 21.1 µM [rising, partial curve]
[3]
  Potency: inactive
[10]
  Potency: active: 26.6 µM

## NC(CS)C(=O)O (stereo not given)
[7]
  Potency: inactive
[1]
  Potency: inactive

## CCOc1ccc(NC(=O)OC(C)C)cc1OCC
[16]
  Potency: inconclusive: 68.6 µM [cytotoxic, single point]
[14]
  Potency: inactive
[12]
  Potency: inconclusive: 49 µM [cytotoxic, partial curve, poor fit]
[3]
  Potency: inconclusive: 38.6 µM [cytotoxic, partial curve]

## CCC(=O)OC/C=C(\C)CCC=C(C)C
[12]
  Potency: inactive
[2]
  Potency: inconclusive: 8.63 µM [activator, full curve]

## CCCCCCCCCCCCCCCCN(C)C
[14]
  activity change, negative = inhibition: inactive: -5.41% [at 5.95 µM]
[12]
  activity change, negative = cytotoxic: inactive: 5.99% [at 6.97 µM]
[10]
  Potency: inconclusive: 2.44 µM [activator, partial curve, poor fit]
